{
  "source": "paper PMC12136788",
  "binders": {"B1": {"name": "chr3:10168198:10168199:+_ENSG00000254999_ENST00000256463|hu_hu|FALSE|FALSE (ssRNA)", "RNA": "GGGAGUUCUACAGUCCGACGAUCUGUCUCAAAUACAUUGACAAGUAGAUGUAUAAAAUGUUACUGAAAAGGUAAAAUGCCUAACGUCGUUUCCAACGGUUCCUCUGAACUUCUUCCCACAUACCACACCACACCCCAGAUGGCCAACAGAGGAUUGAGCAUCA"}, "B2": {"name": "chr14:66974463:66974464:+_ENSMUSG00000022044_ENSMUST00000074523|mus_hu|mus_mus_mus_hu_False|58_58 (ssRNA)", "RNA": "GGGAGUUCUACAGUCCGACGAUCUUGUAGGACGACUUAUUCAGGGGAUCGGCCAGGAAGCAGGAGCAGAACAAGGACACUAGUGGGAGCUCCUUCAUCUUCUCUUUGUAGGCAGCAAGGGUCAUGUUUCUGGGAUCUGGUGGCCAACAGAGGAUUGAGCAUCA"}, "B3": {"name": "chr2:241070490:241070491:-_ENSG00000172428_ENST00000607357|hu_hu|FALSE|FALSE (ssRNA)", "RNA": "GGGAGUUCUACAGUCCGACGAUCAGGGCUUGGCCCCGCCUGCAGCCAGAGGGCAUCUCACUGGAUGUCAUCAUCAUCAAAAAGAUCUUCAAAAUCGUUAAAAAAGUCUGCAUGAACGGCCUUUUCAUUGGCUGCCAAGUCCAUCAACAGAGGAUUGAGCAUCA"}, "B4": {"name": "chr2:136540380:136540381:+_ENSG00000144224_ENST00000272638|hu_hu|motif|central (ssRNA)", "RNA": "GGGAGUUCUACAGUCCGACGAUCGGAAUUUCCAUUCCAAGUGUUGUUUUCAUCUUCACCAUCAUCUUGAGUCCUUAAUCGGUAAAUUUUCCCCUCCUUUUUAAAGUCGUCUCCACGUUUUUCCAGCACUCUUUUUCUCACUGGCAACAGAGGAUUGAGCAUCA"}, "B5": {"name": "chr4:110743517:110743518:+_ENSG00000109534_ENST00000226796|hu_mus|motif|central (ssRNA)", "RNA": "GGGAGUUCUACAGUCCGACGAUCUUUCUCACCAGGAGGACGAGGCAGAAACCUCUGCAGCGGCAGCAGCUUGUAUGGGUCGGUAUAGAACUUCUGUAGCUUUUUAAAGGAAGAUGCCUUCAUGUUUUCUGACAACUUAACUGACAACAGAGGAUUGAGCAUCA"}, "B6": {"name": "chr3:10015032:10015033:+_ENSMUSG00000027533_ENSMUST00000029046|mus_mus|mus_mus_mus_hu_True|38_58 (ssRNA)", "RNA": "GGGAGUUCUACAGUCCGACGAUCGUUUUUACCAUCACAAGUGAUGAUACAAUCUGGCUUGGCCAUUGCGCCCAUUUUCCUAAGAGCUAUUCCCACUCCUAGCUCUUUCAUGUAUUCAUCAAAGCCUUUGCUGUCCACCAGGCGCAACAGAGGAUUGAGCAUCA"}, "B7": {"name": "chr2:47387792:47387793:-_ENSG00000143933_ENST00000272298|hu_hu|hu_hu_hu_mus_True|8_28 (ssRNA)", "RNA": "GGGAGUUCUACAGUCCGACGAUCUAAGGACAAUGACAGUAAGAUAAGGGAAGAAAACAUGGAGGAAUGAAGUCCUAAUUACUAUACAUGCAUAUUUUUUGACAGUAAGGGAGAAACACCUUUUACAUAAGUUACAAAAACAAACAACAGAGGAUUGAGCAUCA"}, "B8": {"name": "chr2:129997582:129997583:-_ENSMUSG00000027404_ENSMUST00000103199|mus_mus|FALSE|FALSE (ssRNA)", "RNA": "GGGAGUUCUACAGUCCGACGAUCGGGAGGGAGCCCUGAAAGGGAAACCAGACAAUCCAGGGAGACUCCAUGAACUGCAUAACAAACAAACAGGUCUGUGGUAACCUGACCCUGGGGAACAGGGUCCACAUCGCCUCUGAGCUACAACAGAGGAUUGAGCAUCA"}, "B9": {"name": "chr5:66692119:66692120:-_ENSMUSG00000029207_ENSMUST00000159786|mus_mus|FALSE|FALSE (ssRNA)", "RNA": "GGGAGUUCUACAGUCCGACGAUCAAGGACAACGGGCUUACGGUAAGUGGCCAUUUUCCUUAACUCACUGGGGAGUUCUGAGAUUGCCUGACAGUAUUCCUGUUCACUGUGUGGCCCCAGAGUCCUUUGUGAAGGGUCCUCCUGCAACAGAGGAUUGAGCAUCA"}, "B10": {"name": "chr3:52741720:52741721:+_ENSG00000114902_ENST00000602728|hu_mus|motif|central (ssRNA)", "RNA": "GGGAGUUCUACAGUCCGACGAUCGUAGAUAGGCCAUGGAGGAAGUGUCAGCAAACAGGAGAAAGCAAAUCCGGCCAUAACGGUGUAGACAGUCCACCCAAACUGUUCAGCCACGUACCCGUAGAUAAACCCAACUAUUGCAGACAACAGAGGAUUGAGCAUCA"}, "B11": {"name": "127918021_127918818_1762_CDS_ENSMUSG00000025369_ENSMUST00000099131|mouse|control|control (ssRNA)", "RNA": "GGGAGUUCUACAGUCCGACGAUCGCCCUUAGCCGUCUCUGGCACCAGGUCAUCCAGCUCUUUGCCCUUCCGCCCAGCCUUGGUGUCAGCAUCAACCUGGCGGCCCUGUGGAGGCUUCGGCUGAAGAGGAACCAGCCCUGAUGGCAACAGAGGAUUGAGCAUCA"}, "B12": {"name": "35570169_35570289_840_CDS_ENSG00000197056_ENST00000373330|human|control|control (ssRNA)", "RNA": "GGGAGUUCUACAGUCCGACGAUCGCUGGUGUAACAGUAAGUGCCACAGUUCUCACAGCAGUUCAUGAUGAAGUUGUUAGCAGAGUGAAACUUUGAAAGGCAGGCAUUACUGCAAAGAUUAUGUUUCACAUUUUGGUAUUUUACCAACAGAGGAUUGAGCAUCA"}, "B13": {"name": "39911895_39915287_1535_3pUTR_ENSG00000121892_ENST00000303538|human|control|control (ssRNA)", "RNA": "GGGAGUUCUACAGUCCGACGAUCAUUAAACAAUGACUGGCAAAUUUCACACUUUCUAAUCUCACAGGAACAUGAAUAUCAUUAAAUCGUCCAAGAAAACAUUGCCAAAGAGGACGAUUCUGUGUUGCCAAAUCAGAAUCUUUGCAACAGAGGAUUGAGCAUCA"}, "B14": {"name": "chr17:46381155:46381156:-_ENSMUSG00000067148_ENSMUST00000087026|mus_hu|FALSE|FALSE (ssRNA)", "RNA": "GGGAGUUCUACAGUCCGACGAUCCCCCAUCAGUACUUUGAUGGCUUCACUCACCAGCACAUCUGGUGGCAACACCCCCGUUGACUCAACAGAGAAGAUAUAAUGAUCUCGAACCCGGGCAAGCCUCACAACCUUCUUUAGCUUCAACAGAGGAUUGAGCAUCA"}},
  "note": "The list shows a part of the results.",
  "data": [
    {"molecular_target": "T1, UNK ZnF1-3 (human, UniProt Q9C0B0 31-174)", "T1 sequence": "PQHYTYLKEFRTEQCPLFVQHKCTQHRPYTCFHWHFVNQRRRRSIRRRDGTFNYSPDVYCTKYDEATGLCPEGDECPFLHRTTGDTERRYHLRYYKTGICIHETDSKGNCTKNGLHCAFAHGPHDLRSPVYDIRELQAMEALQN", "test": "nsRBNS (natural sequence RNA bind-n-seq); RBNS binding buffer (assumed for nsRBNS): 25 mM Tris pH 7.5, 150 mM KCl, 3 mM MgCl2, 0.01% Triton X-100, 500 ug/ml BSA, 20 U/ml SUPERase-In, 4 C; UNK is unkempt and MSI1 is Musashi-1; names of the RNAs are library labels; protein concentration not given here; high values mean tight binding", "units": {"binding signal": "enrichment R"}, "values": [
      {"binder": "B1", "binding signal": 1.15},
      {"binder": "B2", "binding signal": 2.26},
      {"binder": "B3", "binding signal": 1.33},
      {"binder": "B4", "binding signal": 0.445},
      {"binder": "B5", "binding signal": 1.22},
      {"binder": "B6", "binding signal": 0.559},
      {"binder": "B7", "binding signal": 2.14},
      {"binder": "B8", "binding signal": 1.11},
      {"binder": "B9", "binding signal": 0.607},
      {"binder": "B10", "binding signal": 1.63},
      {"binder": "B11", "binding signal": 0.893},
      {"binder": "B12", "binding signal": 1.14},
      {"binder": "B13", "binding signal": 0.864},
      {"binder": "B14", "binding signal": 1.11}
    ]}
  ]
}
